B1: CPEB3 Ribozyme (parent)
chain: UAACAGGGGGCCACAGCAGAAGCGUUCACGUCGCAGCCCCUGUCAGAUUCUGGUGAAUCUGCGAAUUCUGCUGUAUAUCUC

The source gives no read counts; variants with many changes may rest on few reads.

In the data set the parent is B1. Briefly: self-cleavage, relative activity (ratio to wild type); higher = more cleavage; in vitro, sequencing. The method in brief:
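Libraries of CPEB3 self-cleaving ribozyme mutants came from rounds of error-prone PCR and carried barcodes, which DNA sequencing matched to variants. In vitro transcription used T7 RNA polymerase at 37°C for 5 hours, with a further 15 min in DNase I before EDTA stopped the reaction; the ribozymes cleaved during both steps. The RNA was reverse transcribed with template switching and sequenced on Illumina. Relative activity is the cleaved/total read fraction of a variant divided by that of the unmutated ribozyme, averaged over three batches with at least 5 reads.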
For U25C G30A A47G, the self-cleavage came to 0.13.

Consider U25C U48A U51C G70C, for which the self-cleavage stood at 0.12. U25C U31A G46A U69A U72A: the self-cleavage was determined as 0.1. The value for U25C C39A U80C was 0.14. As for U25C U49A U58C U66C, the self-cleavage was determined as 0.18. For the variant U25C U26C C40G A56U, the self-cleavage was 0.08. For U25C G30A U58A, the self-cleavage stood at 0.21.

Turning to U25C U41A C71U, the self-cleavage was 0.12.

Regarding U25C U41A A47U U54C, the self-cleavage is 0.07. The figure for U25C U26C A47G U72G U74A A75G is 0.04. Take U25C G30A U66C: the self-cleavage was found to be 0.11.

Take U25C U31A C38U U48C U58A: the self-cleavage worked out at 0.17. Regarding U25C C39U U41A A57G, the self-cleavage came to 0.07.

In the case of U25C C50U U60C U80C, the self-cleavage turned out to be 0.2. With U25C C38U U69A U78C, the self-cleavage amounted to 0.07.

Regarding U25C U41C G61U C62A A64G, the self-cleavage was found to be 0.17. The figure for U25C U43C U60C U78A is 0.15. The figure for U25C U31C C37G U60A is 0.13. For the variant U25C U26C C37U A45G U54C, the self-cleavage was determined as 0.15. For the variant U25C U31C G53C U66A, the self-cleavage came out at 0.22. Regarding U25C U26C A47G U54A, the self-cleavage was found to be 0.3. Take U25C G33A U49C U67C U76A A77G: the self-cleavage is 0.08. On to U25C U31C G46U U66C, for which the self-cleavage was 0.13.

With U25C U26C A57G, the self-cleavage is 0.07. For U25C U31A U60A A77U, the self-cleavage worked out at 0.16. The figure for U25C U43A G61A U72C U78C is 0.14. As to U25C U48C A57G U76C, the self-cleavage was found to be 0.43.

Take U25C C39A C59U U66C U80C: the self-cleavage stood at 0.13. The value for U25C U41C U51C A57G U78C was 0.21; that for U25C U26C A45G U48A U69C U76A was 0.03. The figure for U25C U26A U72G is 0.22; for U25C U26C G53C A64G it is 0.08; for U25C C40A U67A U69A it is 0.05. Take U25C G70C U78C: the self-cleavage came out at 0.06.

As for U25C U26A C39A U66C, the self-cleavage was 0.15. The figure for U25C U41A U51A U54C A57U is 0.35; for U25C U41A U49A U69C U72G U76C it is 0.06; for U25C U26C A47U U49C A57G it is 0.21. For the variant U25C U31C A47G A75U, the self-cleavage was determined as 0.23.

On to U25C G36A U54C, for which the self-cleavage came out at 0.14. The value for U25C U43G U80A was 0.15; that for U25C G33A C34A U41A U54A G70A U76C was 0.16; that for U25C U41C U58A A77G U80A was 0.1. As for U25C U43C C68G, the self-cleavage was found to be 0.5. Regarding U25C G46A U48C A64G U69C, the self-cleavage is 0.13. With U25C U41C U51A, the self-cleavage is 0.19. Consider U25C U26C U58C A64U U69C U78C, for which the self-cleavage is 0.32. With U25C U31C U41A U43C, the self-cleavage was 0.15. With U25C G52A A56G, the self-cleavage was determined as 0.21. For the variant U25C U26C U41C U60A, the self-cleavage amounted to 0.09. The figure for U25C U31A C79A is 0.27. The value for U25C U26C G33C G46C U48C A75U was 0.15; that for U25C U41A U49A U54C U78C was 0.04; that for U25C U26C A75G was 0.19.

Take U25C U41C U66C: the self-cleavage turned out to be 0.18.

As to U25C U48C A77G, the self-cleavage turned out to be 0.22.

Take U25C U26C U51C U54C A57U: the self-cleavage came out at 0.17. Consider U25C U43C U72A, for which the self-cleavage was 0.19. Turning to U25C U48C U54C A57G, the self-cleavage is 0.43.

Consider U25C U41A U43C, for which the self-cleavage stood at 0.23. The figure for U25C U26A U80A is 0.77; for U25C C40G U49C U69A it is 0.07. Take U25C G30A U41C A45U: the self-cleavage is 0.31. As to U25C U43C U49C U69C, the self-cleavage amounted to 0.21. With U25C U48C U69C, the self-cleavage turned out to be 0.1. The value for U25C U31C U51C was 0.27. Regarding U25C C50U G52A, the self-cleavage turned out to be 0.13.

Turning to U25C G52C U69A, the self-cleavage came to 0.21.

On to U25C G52C A57G U67A U78C, for which the self-cleavage was 0.08. As to U25C U26C C40U U72C, the self-cleavage is 0.16.

Regarding U25C U26A U31C C40U, the self-cleavage was 0.19. For U25C U26C U51C, the self-cleavage amounted to 0.26. U25C U31G U48A: the self-cleavage amounted to 0.46.

For the variant U25C G52A C59U U69C, the self-cleavage stood at 0.19. As for U25C U26C U41C, the self-cleavage is 0.38.

U25C U49A A65U: the self-cleavage worked out at 0.11. On to U25C U43C A65G, for which the self-cleavage amounted to 0.42. Consider U25C U49C A56G, for which the self-cleavage was 0.19. U25C G30A A35G A56G U66C: the self-cleavage was 0.25. Consider U25C U26A U78G, for which the self-cleavage came out at 0.19. As for U25C U41C U51A C62U, the self-cleavage was 0.1. With U25C U26C U41A U58C U60C U67C, the self-cleavage was found to be 0.34. The value for U25C C68A U80C was 0.17; that for U25C U31C U54C U80C was 0.32. As to U25C U26A U43C U69C U72A, the self-cleavage worked out at 0.15.

With U25C U41C A45U U74C, the self-cleavage worked out at 0.3.

Consider U25C U41C U51C U78C, for which the self-cleavage amounted to 0.12. On to U25C U41C U51C G63A U74C U80C, for which the self-cleavage was found to be 0.11. Take U25C U43C A57G U76A: the self-cleavage worked out at 0.09. In the case of U25C C59A A75U U76G, the self-cleavage was found to be 0.15. The figure for U25C C59U A64C U72C is 0.1; for U25C U48A U51A it is 0.39. The figure for U25C U43C U51C U66C U80C is 0.32. Regarding U25C U26C U49C G55A, the self-cleavage was 0.22.

As to U25C U41A G52U U60A, the self-cleavage turned out to be 0.1. Turning to U25C U31C U74C U76G, the self-cleavage is 0.07. Turning to U25C U43C C50U, the self-cleavage stood at 0.16. U25C C40A U49C U54A: the self-cleavage stood at 0.11. For U25C U41C A56G A57G U66C, the self-cleavage turned out to be 0.1.

U25C U43C A56U: the self-cleavage was found to be 0.15. Consider U25C U26C A56G A57G, for which the self-cleavage was 0.22. For the variant U25C U26C U60A A64U U69C, the self-cleavage turned out to be 0.11.

Regarding U25C U31C A56G, the self-cleavage worked out at 0.22. Take U25C C62U U67C U76A: the self-cleavage is 0.11. For U25C G30A G42A U51G, the self-cleavage is 0.14. As for U25C U31A U74A, the self-cleavage was 0.09.

As for U25C C40U U43G U49C G53C U72C C81A, the self-cleavage worked out at 0.05. Take U25C U31C A47G U51G A75U: the self-cleavage amounted to 0.27.

Take U25C U31C U80C: the self-cleavage came to 0.3. Consider U25C U48C U66C, for which the self-cleavage came out at 0.37. As to U25C C40A U51A U54C, the self-cleavage was found to be 0.1. The figure for U25C G42U U67C is 0.09. As to U25C U43C A45G U74C, the self-cleavage was 0.2. The value for U25C G33C G46C U48C A75U was 0.07. In the case of U25C U41C U76C, the self-cleavage was 0.21. The value for U25C U43A A57U A65G was 0.09; that for U25C U26C C29U A45G was 0.26.

For U25C U41A A56G A65U U66C U80C, the self-cleavage was 0.13.

Consider U25C U26A U41C, for which the self-cleavage is 0.19. With U25C G53A C62U A64G A77G, the self-cleavage stood at 0.11. With U25C G30A U31C U66C G73A A77G, the self-cleavage worked out at 0.06. For the variant U25C U31C U49C U60G A65G, the self-cleavage is 0.27.

With U25C U26C G36A U43C A47G, the self-cleavage came to 0.11.

Turning to U25C U41G U54A, the self-cleavage was 0.21.

For the variant U25C U41A U72C, the self-cleavage was determined as 0.36. Consider U25C U41G U72C U80A, for which the self-cleavage amounted to 0.16. On to U25C G46U U54C U74A, for which the self-cleavage is 0.1. As to U25C U31C U51C U66A U72A, the self-cleavage is 0.05. For the variant U25C G63A C71U, the self-cleavage is 0.09. As to U25C U31A U48C U72C, the self-cleavage amounted to 0.27. Consider U25C U26A U69C, for which the self-cleavage stood at 0.2. As for U25C C40A C79G, the self-cleavage was determined as 0.24. Take U25C U26A A45U U48C G73U: the self-cleavage is 0.05. With U25C U41C A56U, the self-cleavage was 0.32. The value for U25C U31C U51C A77U C79A was 0.09; that for U25C G30A A47G U48A was 0.18; that for U25C C62U U76A was 0.07. The value for U25C U43C U67A A75G was 0.05.

Turning to U25C U43C U60C U72A, the self-cleavage worked out at 0.19. U25C U48C U69C U72C U78C: the self-cleavage amounted to 0.08.

On to U25C G61U A64U, for which the self-cleavage was found to be 0.14.

U25C G36A U58A: the self-cleavage is 0.16. For U25C U41A A57G U76A, the self-cleavage is 0.14. As for U25C U26A U43A, the self-cleavage is 0.27. Take U25C U43C U60C A64U: the self-cleavage turned out to be 0.14. With U25C U48C U60A, the self-cleavage was found to be 0.13. For U25C U41G C62A A65U U78G, the self-cleavage was found to be 0.12. On to U25C U26A G33A C34A A47G U54A C62U, for which the self-cleavage was determined as 0.26.

On to U25C G36A U54C C62U, for which the self-cleavage came out at 0.13. With U25C U31A A57G U72C, the self-cleavage turned out to be 0.17. Regarding U25C U26A U43C U49A G61C U69C, the self-cleavage was determined as 0.14. Consider U25C U26C A45U U49C, for which the self-cleavage is 0.18.

As for U25C C62U A77U, the self-cleavage worked out at 0.06.

U25C U31A U58A U60A U78C: the self-cleavage is 0.1. The figure for U25C U41A U49A U80C is 0.33; for U25C U26C A47G A75U it is 0.12; for U25C G61C U78C it is 0.05.

In the case of U25C U26C U41A U60C, the self-cleavage came to 0.1. Consider U25C U48C A64U, for which the self-cleavage is 0.19. Turning to U25C U41G A75G, the self-cleavage was 0.11.

With U25C U41C U58A, the self-cleavage amounted to 0.1.

As to U25C U48C U72G, the self-cleavage was found to be 0.1. Consider U25C U48C U72A, for which the self-cleavage came to 0.28. The value for U25C U41C A64G was 0.1; that for U25C U26A A28U U43C A47G A57G U60C was 0.14; that for U25C U31A A35U U60C was 0.07. The value for U25C C62U U69C was 0.04.

Values taken from the RNAGym collection of RNA variant scans (doi:10.1093/nar/gkz1192).
